In PubChem BioAssay AID588591 (National Center for Advancing Translational Sciences (NCATS), 2011):
The campaign covered roughly 390,000 compounds. About 4,700 (1.2%) were called active. The shares of active, inactive and inconclusive entries below differ from those in the screen. Calls follow the shape of the dose curve; as a rule, active = well fitted inhibition curve with a large enough effect; inconclusive = small, poorly fitted or top-dose-only effect, or another doubt; inactive = no such curve, though single readings can be large or run the other way. Potencies beside an inconclusive call are fits to weak or partial responses and may not hold up.

target: DNA polymerase eta (Homo sapiens) (UniProt Q9Y253); assay: qHTS for Inhibitors of Polymerase Eta; conditions: recombinant Pol eta, fluorescent DNA replication assay; series mostly up to 114 µM; activity change, negative = inhibition: at the top concentration
Summary of the method: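 Pol eta at 10 nM preincubated with compounds 15 min at room temperature; reaction started with fluorescent substrate (50 nM final) and read kinetically at 0 and 10 min.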
% is scaled to controls: 0 for no effect and ±100 for the full control effect; potency is read from the fitted curve at half-maximal effect; tags tell the direction and shape of the fitted curve.

Chain of UniProt Q9Y253 (Q9Y253 whole entry, looked up): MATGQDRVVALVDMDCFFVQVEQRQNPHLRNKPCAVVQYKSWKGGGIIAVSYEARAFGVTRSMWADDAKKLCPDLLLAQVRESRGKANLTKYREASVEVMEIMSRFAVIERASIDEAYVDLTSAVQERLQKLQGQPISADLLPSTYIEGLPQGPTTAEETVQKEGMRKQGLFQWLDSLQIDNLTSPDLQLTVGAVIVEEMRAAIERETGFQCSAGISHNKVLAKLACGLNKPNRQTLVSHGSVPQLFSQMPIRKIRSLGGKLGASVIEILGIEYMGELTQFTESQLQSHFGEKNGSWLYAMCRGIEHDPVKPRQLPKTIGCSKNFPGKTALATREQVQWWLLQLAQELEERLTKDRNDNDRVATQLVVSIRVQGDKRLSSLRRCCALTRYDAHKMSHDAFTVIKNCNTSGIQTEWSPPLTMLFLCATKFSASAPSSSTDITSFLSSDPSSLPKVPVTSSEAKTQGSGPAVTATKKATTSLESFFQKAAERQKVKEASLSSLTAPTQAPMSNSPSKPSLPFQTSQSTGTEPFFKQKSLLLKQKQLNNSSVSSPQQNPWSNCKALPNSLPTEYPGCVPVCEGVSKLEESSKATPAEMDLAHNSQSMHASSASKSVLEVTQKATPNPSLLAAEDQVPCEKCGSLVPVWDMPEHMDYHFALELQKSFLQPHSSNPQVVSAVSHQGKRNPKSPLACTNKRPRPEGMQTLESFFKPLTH

Row | Compound | Potency | activity change, negative = inhibition
1 | N#Cc1c(NC(=S)NC(=O)c2ccccc2)sc2c1CCC2 | inconclusive: 39.8 µM [inhibitor, partial curve, poor fit] | –
2 | CCOc1cccc2cc(-c3nnc(NCc4ccc5c(c4)OCO5)s3)c(=O)oc12 | active: 3.98 µM | –
3 | CC(C)Sc1nc(SCC(=O)NCc2ccco2)c2c3c(sc2n1)COC(C)(C)C3 | inconclusive: 17.8 µM [inhibitor, partial curve] | –
4 | C[C@H]1CN([C@@H](C)CO)C(=O)c2cccc(NC(=O)Nc3ccc(C(F)(F)F)cc3)c2O[C@@H]1CN(C)S(=O)(=O)c1ccc(Cl)cc1 | inconclusive: 70.8 µM [inhibitor, partial curve, poor fit] | –
5 | COc1cccc(CNC(=O)c2ccc(CS(=O)Cc3ccccc3Cl)o2)c1 (configuration not stated) | – | inactive: -15.1%
6 | CC(C)Oc1ccc(CNC(=O)CN2C(=O)CCn3nc(-c4cn(C)c5ccccc45)cc32)cc1 | – | inactive: -26.8%
7 | COc1ccc(CCC(=O)O)c(O)c1 | active: 31.6 µM | –
8 | S=c1[nH]nc(-c2cccnc2)n1/N=C/C=C/c1ccco1 | inconclusive: 35.5 µM [inhibitor, single point] | –
9 | CCCc1cc(=O)oc2c(C)c(OCC(=O)c3ccc(N4CCCC4)cc3)ccc12 | inconclusive: 3.16 µM [inhibitor, full curve, poor fit] | –
10 | O=C(N/N=C/c1ccc(OC(=O)c2cccs2)cc1)c1ccc(F)cc1 | inconclusive: 11.2 µM [inhibitor, partial curve, poor fit] | –
11 | CC(C)c1ccccc1NC(=S)NC1CCN(Cc2ccccc2)CC1 | inconclusive: 3.16 µM [inhibitor, partial curve, poor fit] | –
12 | COc1ccc(CCNC(=O)CCCCCN2C(=O)[C@@H]3Cc4ccccc4CN3C2=O)cc1OC | inconclusive: 89.1 µM [inhibitor, partial curve, poor fit] | –
13 | N#CC1=C(N)Oc2n[nH]c(-c3cccs3)c2C1c1ccoc1 (configuration not stated) | inconclusive: 20 µM [inhibitor, partial curve, poor fit] | –
14 | CCc1ccc(S(=O)(=O)/N=C2\C=C(NS(=O)(=O)c3ccccc3)C(=O)c3ccccc32)cc1 | active: 89.1 µM | –
15 | COC(=O)C1=C(C)N(CCCC(=O)O)C(=O)NC1c1ccc(Cl)cc1 (configuration not stated) | – | inactive: -7.54%
16 | CCc1ccc(NC(=O)Nc2cn(C)c(=O)c3ccccc23)cc1 | – | inactive: -4.91%
17 | C/C(=N\NC(=O)c1ccn(C)n1)c1cccc(NC(=O)c2ccc(C)s2)c1 | – | inactive: -8.25%
18 | N#CC1=C(SCC(=O)NCc2ccccc2)NC(=O)CC1c1ccco1 (configuration not stated) | inconclusive: 39.8 µM [inhibitor, partial curve, poor fit] | –
19 | CC(C)NC(=O)C1CCCN(S(=O)(=O)c2cccs2)C1 (configuration not stated) | inconclusive: 31.6 µM [inhibitor, partial curve, poor fit] | –
20 | NS(=O)(=O)c1ccc(CCNC(=O)CSc2ccsc2[N+](=O)[O-])cc1 | active: 22.4 µM | –
21 | CSc1oc(-c2ccco2)nc1S(=O)(=O)c1ccc(F)cc1 | inconclusive: 22.4 µM [inhibitor, full curve] | –

Row | Compound | Potency | activity change, negative = inhibition
22 | Cc1nc2ccc(C(=O)O)cc2[nH]1 | inconclusive: 89.1 µM [inhibitor, single point] | –
23 | O=S(=O)(Cc1cc(Cl)nc(-c2ccncc2)n1)c1ccccc1 | inconclusive: 56.2 µM [inhibitor, partial curve, poor fit] | –
24 | CNC(=O)c1ccc(Nc2nnc(-c3ccc(O)cc3)c3ccccc23)cc1 | – | inactive: -22.2%
25 | Cc1nc2nc(SCC(=O)N(C)Cc3ccccc3)nn2c(C)c1Cc1ccccc1Cl | – | inactive: -21.3%
26 | Cc1ccc(Cn2nc(C)c(NC(=O)CSc3nc4c(c(C(F)(F)F)n3)CCc3ccccc3-4)c2C)cc1 | inconclusive: 22.4 µM [inhibitor, partial curve] | –
27 | O=C(COc1ccccc1F)OCc1cc(=O)n2nc(C3CCCCC3)sc2n1 | – | inactive: -18%
28 | Cc1nc2ccc(C(=O)O)cc2nc1C | inconclusive: 15.8 µM [inhibitor, partial curve, poor fit] | –
29 | CCOC(=O)N1CCN(CC(=O)Nc2nccs2)CC1 | – | inactive: 1.37%
30 | O=c1c(OC2OC(CO)C(O)C(O)C2O)c(-c2ccc(O)c(O)c2)oc2cc(O)cc(O)c12 (configuration not stated) | inconclusive: 39.8 µM [inhibitor, partial curve, poor fit] | –
31 | CCCCCNCC(=O)Nc1cc(C(F)(F)F)ccc1OCCOC | inconclusive: 89.1 µM [inhibitor, partial curve, poor fit] | –
32 | CC(/C=C/c1ccco1)=N\NC(=O)c1cccnc1 | inconclusive: 79.4 µM [inhibitor, single point] | –
33 | CCc1c(C)sc2c1CCN(Cc1ccccc1)C2c1ccccc1 (configuration not stated) | – | inactive: -17.7%
34 | Cc1cccc(C(=O)Oc2ccccc2/C=N/NC(=O)c2ccc(NC(=O)C(C)(C)C)cc2)c1 | inconclusive: 8.91 µM [inhibitor, partial curve, poor fit] | –
35 | O=C1CC(c2cccc(Cl)c2)Cc2nc(N3CCOCC3)ncc21 (configuration not stated) | inconclusive: 79.4 µM [inhibitor, partial curve, poor fit] | –
36 | C=CCc1ccccc1OCCSc1nc(-c2cccs2)nc2cc(=O)[nH]n12 | active: 79.4 µM | –
37 | O=C(CCCN1C(=O)/C(=C/c2cccc(Br)c2)SC1=S)Nc1cccnc1 | inconclusive: 79.4 µM [inhibitor, partial curve, poor fit] | –
38 | Cc1cc(C)cc(N=Cc2ccc([N+](=O)[O-])s2)c1 | active: 31.6 µM | –
39 | O=C(/C=C\c1ccco1)c1ccc(NC(=O)c2ccco2)cc1 | inconclusive: 56.2 µM [inhibitor, partial curve, poor fit] | –
40 | Cc1ccc(NC(=O)Cn2c(O)c(N=NC(=O)c3cc4ccccc4cc3O)c3ccccc32)cc1 | inconclusive: 10 µM [inhibitor, full curve, poor fit] | –
41 | O=C(NC(=S)Nc1ccc(N2CCCCC2)c(Cl)c1)c1cccs1 | inconclusive: 79.4 µM [inhibitor, partial curve, poor fit] | –
42 | Cc1nc2ccc(NC(=O)c3ccc(Cl)c(NC(=O)c4cccs4)c3)cc2s1 | inconclusive: 12.6 µM [inhibitor, partial curve, poor fit] | –
